Screen size: about 43,000 compounds; about 200 (0.47%) were called active. About 12% were inconclusive and are not listed. Calls follow the shape of the dose curve; as a rule, active = well fitted cell-killing curve with a large enough effect; inconclusive = small, poorly fitted or top-dose-only effect, or effect the other way; inactive = flat fitted curve, though single readings scatter. The list shows a part of the results.
assay: Cell viability qHTS assay in S16 Pmp22-F2sN cells; settings: S16 Pmp22-F2sN Schwann cells viability, CellTiter-Glo, 24 h; series mostly up to 57.5 µM; activity change, negative = cytotoxicity: at the top concentration; also: nearly all actives have a fitted effect of over 65% in size
How it was run: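 Viability was measured by CellTiter-Glo luminescence (15 min, room temperature). This followed 24 h at 37 °C of compound exposure (23 nL pin transfer) in S16 Pmp22-F2sN Schwann cells, 500-1,000 per well.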
% is scaled to controls: 0 for no effect and ±100 for the full control effect.

Row | SMILES | activity change, negative = cytotoxicity
1 | CCOc1ccc(N(CC)C(=O)Cn2cnc3sc(C)c(S(=O)(=O)N4CCN(c5ncccn5)CC4)c3c2=O)cc1 | inactive: 20.9%
2 | COc1ccc(-c2cc(C(F)(F)F)nc(SCC(=O)NC(C)c3ccccc3)n2)cc1 (centres undefined) | inactive: 27.9%
3 | Cc1ccc(CN(C(=O)COc2ccc(F)cc2)C2CCS(=O)(=O)C2)o1 (centres undefined) | inactive: -3.82%
4 | CCn1cc(S(=O)(=O)c2ccccc2)c(=O)c2cc(F)c(F)cc21 | inactive: 1.55%
5 | Cc1cccc(N2CCN(CCCNc3ncnc4onc(-c5ccc(F)cc5)c34)CC2C)c1 (centres undefined) | inactive: -27.2%
6 | O=C(Nc1ccc(F)c(F)c1)c1cc(S(=O)(=O)NC2CCCC2)ccc1F | inactive: -17.3%
7 | CCC(C)NC(=O)Cn1ccc2cc(S(=O)(=O)N3CCCCCC3)ccc21 (centres undefined) | inactive: 4.06%
8 | O=C(CCNS(=O)(=O)c1ccc2c(c1)CCN2C(=O)C1CC1)Nc1ccc(OC(F)(F)F)cc1 | inactive: -9.28%
9 | COc1cccc(C(=O)Nc2ccc3nc(SCCOc4ccccc4)sc3c2)c1 | inactive: 13.1%
10 | COc1cccc(NC(=O)C2CCCN(c3ncnc4onc(C)c34)C2)c1 (centres undefined) | inactive: -2.1%
11 | CCCCOc1cccc(C2c3c(-c4cc(C)ccc4O)n[nH]c3C(=O)N2CCOC)c1 (centres undefined) | inactive: -8.83%
12 | COc1ccc(NC(=O)CNC(=O)Cn2ccc3ccccc3c2=O)cc1OC | inactive: 0.53%
13 | O=C(Nc1ccccc1C(=O)N1CCCCC1)c1nsc2ccccc12 | inactive: -9.39%
14 | Cc1oc(-c2cccc(Cl)c2)nc1Cn1c(SCc2ccc(F)cc2)nc2cccnc21 | inactive: -25.6%
15 | COc1cc2c(C(=O)N(C)c3cccc(C(F)(F)F)c3)cn(CC(C)C)c(=O)c2cc1OC | inactive: -8.85%
16 | Cc1ccc(C(c2sc3nc(-c4ccco4)nn3c2O)N2CCN(c3ccc(F)cc3)CC2)cc1 (centres undefined) | inactive: 3.56%
17 | CCCCN(C)C(=O)CCC(=O)NNc1nc2ccccc2c2nc(C)nn12 | inactive: 3.61%
18 | COc1cc2c(cc1OC)C(COc1cc(C)cc(C)c1)N(C(=O)C(C)(C)C)CC2 (centres undefined) | inactive: 9.06%
19 | CCC(Nc1ccc(-c2nc(-c3ccccn3)no2)cc1[N+](=O)[O-])c1ccccc1 (centres undefined) | inactive: 5.92%
20 | Cc1cc2n(n1)CCCN2C(=O)Nc1ccccc1C(F)(F)F | inactive: -5.03%

Row | SMILES | activity change, negative = cytotoxicity
21 | CCC(C)OC(=O)/C(C#N)=C/c1ccc(-c2ccc(Br)cc2)o1 (centres undefined) | inactive: 6.87%
22 | O=C(CCCCCn1c(=O)c2sccc2n(CC(=O)Nc2ccccc2F)c1=O)NCc1ccc2c(c1)OCO2 | inactive: -0.565%
23 | COc1cc(CN(C(=O)COc2ccccc2)c2ccccn2)cc(OC)c1OC | inactive: 1.34%
24 | Cc1ccc(C2CC(=O)Nc3c2c(C)nn3-c2nc(C)cc(C)n2)c(C)c1 (centres undefined) | inactive: 19.3%
25 | Cn1c(=O)oc2cc(S(=O)(=O)CCC(=O)NCc3ccc(Cl)cc3)ccc21 | inactive: 0.744%
26 | Cc1ccsc1CN(Cc1ccco1)c1cnc(S(C)(=O)=O)nc1C(=O)Nc1ccc(Cl)cc1 | inactive: -12%
27 | Cc1ccccc1C(=O)N1CCC(c2nc(-c3ccc(S(=O)(=O)N4CCCC4)cc3)no2)CC1 | inactive: 6.32%
28 | Cc1cccc(C(=O)Nc2ccc(OCc3cc(=O)n4ccc(C)cc4n3)cc2)c1 | inactive: 3.99%
29 | Cc1ccc(NS(=O)(=O)c2ccc(-n3cccn3)cc2)c(Br)c1 | inactive: 5.21%
30 | COc1ccc(Nc2nc3ccccc3n3c(N)nnc23)cc1 | inactive: -18.1%
31 | CC1CCN(C(=O)CN2CC(C)Sc3ccccc32)CC1 (centres undefined) | inactive: -0.621%
32 | Cc1ccc(NC(=O)N2CC=C(c3c[nH]c4ccccc34)CC2)cc1Cl | inactive: -12.6%
33 | CCOCCn1ccc2c(OCC(=O)Nc3cc(C)cc(C)c3)cccc2c1=O | inactive: 4.48%
34 | COc1ccc(-c2cn3nc(SCC(=O)Nc4cccc(C)c4C)ccc3n2)cc1 | inactive: 3.49%
35 | O=C1CN(C(=O)c2ccc(S(=O)(=O)N3CCCC3)cc2)C(c2ccc(F)cc2)c2cc(Br)ccc2N1 (centres undefined) | inactive: -15.8%
36 | CCC1CN(S(=O)(=O)c2cc(-c3cc(C)no3)ccc2OC)c2cc(Cl)ccc2O1 (centres undefined) | inactive: -15.7%
37 | Cc1ccc2c(c1)N(C(=O)N1CCC(C(=O)Nc3cccc(F)c3)CC1)CCO2 | inactive: -16.2%
38 | O=S(=O)(NCCc1csc2nc(-c3ccc(Cl)cc3)nn12)c1cccs1 | inactive: -18.4%
39 | CC(C)CC(=O)NC1CC(=O)N(c2ccc3c(c2)OCCO3)C1 (centres undefined) | inactive: 24.1%
40 | CN(Cc1ccccc1)c1nc2c(S(=O)(=O)c3cccc(Cl)c3)nnn2c2ccsc12 | inactive: 0.891%

Row | SMILES | activity change, negative = cytotoxicity
41 | CCCCNC(=O)CSc1nc2cc3c(cc2c(=O)n1CCCC(=O)NCc1ccc(OC)cc1)OCO3 | inactive: 0.534%
42 | O=C(COc1ccc(Cl)cc1)OCc1cc(=O)n2nc(C3CCCCC3)sc2n1 | inactive: -16.7%
43 | CCOC(=O)c1ccc2c(c1)N(Cc1cc(C)ccc1C)C(=O)c1ccccc1S2(=O)=O | inactive: -0.667%
44 | Cc1cc(C)cc(NC(=O)[C@H]2O[C@@H]3OC(C)(C)O[C@@H]3[C@H]3OC(C)(C)O[C@H]32)c1 | inactive: 21.8%
45 | COc1cc(Nc2nc3c(S(=O)(=O)c4ccccc4)nnn3c3ccc(Cl)cc23)cc(OC)c1 | inactive: -0.542%
46 | O=c1c2oc3ccccc3c2n(Cc2ccccc2Cl)c(=O)n1Cc1ccc2c(c1)OCO2 | inactive: 22.1%
47 | CCc1ccccc1NC(=O)CN(c1cc(C(F)(F)F)ccc1Cl)S(=O)(=O)c1ccccc1 | inactive: 6.52%
48 | CCc1ccccc1NC(=O)Cn1c(=O)n(-c2ccc(C)cc2)c(=O)c2cc(OC)c(OC)cc21 | inactive: 1.51%
49 | CCN(CCCNC(=O)Cn1ncc2c([nH]c3ccccc32)c1=O)c1cccc(C)c1 | inactive: 3.35%
50 | COC(=O)c1scc(-c2ccc(C)cc2)c1S(=O)(=O)N1CCN(c2cccc(Cl)c2)CC1 | inactive: 27.8%
51 | CCc1ccccc1Nc1sc(C(=O)c2ccccc2)c(N)c1S(=O)(=O)c1ccccc1 | inactive: 7.79%
52 | Cc1c(C(=O)Nc2c(F)cccc2F)sc2ncn(Cc3ccccc3F)c(=O)c12 | inactive: -28.3%
53 | CC(=O)N1CCc2c(sc3c2c(=O)n(-c2ccccc2C)c(=O)n3CC(=O)Nc2ccccc2)C1 | inactive: 27.9%
54 | Cn1c(=O)sc2cc(NS(=O)(=O)c3ccc(C(C)(C)C)cc3)ccc21 | inactive: -1.09%
55 | Cc1ccc(S(=O)(=O)c2nc(-c3cccs3)oc2N2CCC(C)CC2)cc1 | inactive: -13.6%
56 | COc1ccc(Cl)cc1NC(=O)Cn1cc(S(=O)(=O)Cc2cccc(Cl)c2)c2ccccc21 | inactive: -11.2%
57 | CN1CCc2c(sc3c2C(=O)NC(c2ccc(OC(=O)c4ccc(Cl)cc4)cc2)N3)C1 (centres undefined) | inactive: 20.1%
58 | CC(=O)N1CCc2cc(Br)cc(S(=O)(=O)CCC(=O)NCCc3ccc(Cl)cc3)c21 | inactive: 10.2%
59 | CCCCOc1ccc(C(=O)N(Cc2nc(-c3ccc(Cl)cc3)no2)C(C)C)cc1 | inactive: 7.06%

— PubChem BioAssay AID1508642 (National Center for Advancing Translational Sciences (NCATS), 2021)
